{"source": "the supplement of paper PMC9588766", "note": "Counter-ions that a name gives are not always drawn. In all, about 1,900 compounds were measured (“cell viability of compound + 1 nM pemigatinib relative to pemigatinib-only (DMSO) wells”: median about 0.95, lowest 2% from about 0.22 on). The list shows a part of the results.", "data": [{"tested_on": "PDC-DUC18828", "assay": "cell viability of compound + 1 nM pemigatinib relative to pemigatinib-only (DMSO) wells (fraction); PDC-DUC18828 is a patient-derived cholangiocarcinoma cell line; higher = less growth inhibition", "settings": "first compound 1 µM; pemigatinib concentration 1 nM; 72 h", "protocol": "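Selleck Bioactive library screen in the patient-derived FGFR2 fusion-positive ICC cell line PDC-DUC18828 (500 cells/well). Each compound was tested at 1 uM with 1 nM pemigatinib, in triplicate, for 72 h. Viability was read by CellTiter-Glo and normalised to plate DMSO controls. Value is the paper's averaged normalised viability.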", "values": [{"smiles": "Nc1[nH]cnc2ncnc1-2", "note": "[Adenine HCl] + CCN1C(=O)N(c2c(F)c(OC)cc(OC)c2F)Cc2cnc3[nH]c(CN4CCOCC4)cc3c21 [pemigatinib]", "cell viability": 0.954}, {"smiles": "C[C@@H](NCCCc1cccc(C(F)(F)F)c1)c1cccc2ccccc12", "note": "[Cinacalcet HCl] + CCN1C(=O)N(c2c(F)c(OC)cc(OC)c2F)Cc2cnc3[nH]c(CN4CCOCC4)cc3c21 [pemigatinib]", "cell viability": 0.986}, {"smiles": "CC(=O)Nc1cccc(-n2c(=O)n(C3CC3)c(=O)c3c(Nc4ccc(I)cc4F)n(C)c(=O)c(C)c32)c1", "note": "+ CCN1C(=O)N(c2c(F)c(OC)cc(OC)c2F)Cc2cnc3[nH]c(CN4CCOCC4)cc3c21 [pemigatinib]", "cell viability": 0.717}, {"smiles": "OC(Cn1cncn1)(Cn1cncn1)c1ccc(F)cc1F", "note": "[Fluconazole] + CCN1C(=O)N(c2c(F)c(OC)cc(OC)c2F)Cc2cnc3[nH]c(CN4CCOCC4)cc3c21 [pemigatinib]", "cell viability": 1.04}, {"smiles": "NCCc1c[nH]cn1", "note": "[Histamine 2HCl] + CCN1C(=O)N(c2c(F)c(OC)cc(OC)c2F)Cc2cnc3[nH]c(CN4CCOCC4)cc3c21 [pemigatinib]", "cell viability": 0.941}, {"smiles": "N=C(N)NC(=N)NCCc1ccccc1", "note": "[Phenformin HCl] + CCN1C(=O)N(c2c(F)c(OC)cc(OC)c2F)Cc2cnc3[nH]c(CN4CCOCC4)cc3c21 [pemigatinib]", "cell viability": 0.952}, {"smiles": "CO[C@H]1/C=C/O[C@@]2(C)Oc3c(C)c(O)c4c(O)c(c(/C=N/N5CCN(C6CCCC6)CC5)c(O)c4c3C2=O)NC(=O)/C(C)=C\\C=C\\[C@H](C)[C@H](O)[C@@H](C)[C@@H](O)[C@@H](C)[C@H](OC(C)=O)[C@@H]1C", "note": "[Rifapentine] + CCN1C(=O)N(c2c(F)c(OC)cc(OC)c2F)Cc2cnc3[nH]c(CN4CCOCC4)cc3c21 [pemigatinib]", "cell viability": 0.966}, {"smiles": "CN1CCC(=C2c3ccccc3C=Cc3ccccc32)CC1", "note": "[Cyproheptadine HCl] + CCN1C(=O)N(c2c(F)c(OC)cc(OC)c2F)Cc2cnc3[nH]c(CN4CCOCC4)cc3c21 [pemigatinib]", "cell viability": 0.979}, {"smiles": "CNC1CCCN(c2c(F)cc3c(=O)c(C(=O)O)cn(C4CC4)c3c2OC)C1", "note": "(configuration not stated) [Balofloxacin] + CCN1C(=O)N(c2c(F)c(OC)cc(OC)c2F)Cc2cnc3[nH]c(CN4CCOCC4)cc3c21 [pemigatinib]", "cell viability": 1.05}, {"smiles": "CC[C@H]1[C@@H](O)[C@@H]2[C@H](CC[C@]3(C)[C@@H]([C@H](C)CCC(=O)O)CC[C@@H]23)[C@@]2(C)CC[C@@H](O)C[C@@H]12", "note": "[Obeticholic Acid] + CCN1C(=O)N(c2c(F)c(OC)cc(OC)c2F)Cc2cnc3[nH]c(CN4CCOCC4)cc3c21 [pemigatinib]", "cell viability": 0.961}, {"smiles": "C[C@@H](Oc1ccc2[nH]nc(/C=C/c3cnn(CCO)c3)c2c1)c1c(Cl)cncc1Cl", "note": "+ CCN1C(=O)N(c2c(F)c(OC)cc(OC)c2F)Cc2cnc3[nH]c(CN4CCOCC4)cc3c21 [pemigatinib]", "cell viability": 0.232}, {"smiles": "C[C@H]1O[C@H](O[C@H]2[C@H](O)[C@@H](O)[C@@H](O[C@H]3[C@H](O)[C@@H](O)C(O)O[C@@H]3CO)O[C@@H]2CO)[C@H](O)[C@@H](O)[C@@H]1N[C@H]1C=C(CO)[C@@H](O)[C@H](O)[C@H]1O", "note": "(some centres not stated) [Acarbose] + CCN1C(=O)N(c2c(F)c(OC)cc(OC)c2F)Cc2cnc3[nH]c(CN4CCOCC4)cc3c21 [pemigatinib]", "cell viability": 0.952}, {"smiles": "CC(C)(O)[C@H]1CC[C@@](C)([C@H]2[C@@H](O)C[C@@]3(C)[C@@H]4C[C@H](O[C@@H]5O[C@H](CO)[C@@H](O)[C@H](O)[C@H]5O)[C@H]5C(C)(C)[C@@H](O[C@@H]6OC[C@@H](O)[C@H](O)[C@H]6O)CC[C@@]56C[C@@]46CC[C@]23C)O1", "note": "[Astragaloside A] + CCN1C(=O)N(c2c(F)c(OC)cc(OC)c2F)Cc2cnc3[nH]c(CN4CCOCC4)cc3c21 [pemigatinib]", "cell viability": 0.913}, {"smiles": "C=C1CC[C@H](O)C/C1=C/C=C1\\CCC[C@]2(C)[C@@H]([C@H](C)CCCC(C)C)CC[C@@H]12", "note": "[Vitamin D3] + CCN1C(=O)N(c2c(F)c(OC)cc(OC)c2F)Cc2cnc3[nH]c(CN4CCOCC4)cc3c21 [pemigatinib]", "cell viability": 0.931}, {"smiles": "O=C(O)[C@]1(Cc2cccc(Nc3nccs3)n2)CC[C@@H](Oc2cccc(Cl)c2F)CC1", "note": "+ CCN1C(=O)N(c2c(F)c(OC)cc(OC)c2F)Cc2cnc3[nH]c(CN4CCOCC4)cc3c21 [pemigatinib]", "cell viability": 0.355}, {"smiles": "COc1cc2c(Nc3ccc(NC(=O)c4ccccc4)cc3)ncnc2cc1OCCCN1CCOCC1", "note": "+ CCN1C(=O)N(c2c(F)c(OC)cc(OC)c2F)Cc2cnc3[nH]c(CN4CCOCC4)cc3c21 [pemigatinib]", "cell viability": 0.872}, {"smiles": "CC(=O)Nc1ccc(C(=O)Nc2ccccc2N)cc1", "note": "[CI994 (Tacedinaline)] + CCN1C(=O)N(c2c(F)c(OC)cc(OC)c2F)Cc2cnc3[nH]c(CN4CCOCC4)cc3c21 [pemigatinib]", "cell viability": 0.834}, {"smiles": "COc1cccc2c1c(O)c(C(=O)N(C)c1ccc(C(F)(F)F)cc1)c(=O)n2C", "note": "[Tasquinimod] + CCN1C(=O)N(c2c(F)c(OC)cc(OC)c2F)Cc2cnc3[nH]c(CN4CCOCC4)cc3c21 [pemigatinib]", "cell viability": 0.875}, {"smiles": "CCCc1cc(C(N)=S)ccn1", "note": "[Protionamide] + CCN1C(=O)N(c2c(F)c(OC)cc(OC)c2F)Cc2cnc3[nH]c(CN4CCOCC4)cc3c21 [pemigatinib]", "cell viability": 0.979}, {"smiles": "C#Cc1cccc(Nc2ncnc3cc(OC)c(OCCCCCCC(=O)NO)cc23)c1", "note": "+ CCN1C(=O)N(c2c(F)c(OC)cc(OC)c2F)Cc2cnc3[nH]c(CN4CCOCC4)cc3c21 [pemigatinib]", "cell viability": 0.972}, {"smiles": "CC(=O)S[C@@H]1CC2=CC(=O)CC[C@]2(C)[C@H]2CC[C@@]3(C)[C@@H](CC[C@@]34CCC(=O)O4)[C@H]12", "note": "[Spironolactone] + CCN1C(=O)N(c2c(F)c(OC)cc(OC)c2F)Cc2cnc3[nH]c(CN4CCOCC4)cc3c21 [pemigatinib]", "cell viability": 0.949}, {"smiles": "CCOC(=O)[C@@H](N)Cc1ccc(-c2cc(O[C@H](c3ccc(Cl)cc3-n3ccc(C)n3)C(F)(F)F)nc(N)n2)cc1", "note": "[Telotristat Etiprate (LX 1606 Hippurate)] + CCN1C(=O)N(c2c(F)c(OC)cc(OC)c2F)Cc2cnc3[nH]c(CN4CCOCC4)cc3c21 [pemigatinib]", "cell viability": 0.974}]}]}
